Assay results taken from PubChem BioAssay AID1030 (National Center for Advancing Translational Sciences (NCATS), 2008).
The campaign covered roughly 220,000 compounds. About 16,000 (7.3%) were called active. The inconclusive results got no clear call from the source; some entries with a clear call stand among them for comparison. Calls come from the whole dose curve; as a rule, active = well fitted inhibition curve with a large enough effect (not every such curve was filed as active); inconclusive = small, poorly fitted or top-dose-only effect, or another doubt; inactive = no such curve, though single readings can be large or run the other way. Where the call is inconclusive, the potency comes from a doubtful curve fit.

Each molecule was assayed against Aldehyde dehydrogenase 1A1 (Homo sapiens) (UniProt P00352) (assay: qHTS Assay for Inhibitors of Aldehyde Dehydrogenase 1 (ALDH1A1)). Conditions: Purified ALDH1A1, NADH fluorescence, propionaldehyde substrate; series mostly up to 75.3 µM.
Potency is the fitted concentration of half-maximal effect; tags give direction and shape of the fitted curve.
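Throughout, for activity, negative = inhibition: plate controls were no enzyme wells and a reference inhibitor.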

Chain of UniProt P00352 (P00352 whole entry, looked up): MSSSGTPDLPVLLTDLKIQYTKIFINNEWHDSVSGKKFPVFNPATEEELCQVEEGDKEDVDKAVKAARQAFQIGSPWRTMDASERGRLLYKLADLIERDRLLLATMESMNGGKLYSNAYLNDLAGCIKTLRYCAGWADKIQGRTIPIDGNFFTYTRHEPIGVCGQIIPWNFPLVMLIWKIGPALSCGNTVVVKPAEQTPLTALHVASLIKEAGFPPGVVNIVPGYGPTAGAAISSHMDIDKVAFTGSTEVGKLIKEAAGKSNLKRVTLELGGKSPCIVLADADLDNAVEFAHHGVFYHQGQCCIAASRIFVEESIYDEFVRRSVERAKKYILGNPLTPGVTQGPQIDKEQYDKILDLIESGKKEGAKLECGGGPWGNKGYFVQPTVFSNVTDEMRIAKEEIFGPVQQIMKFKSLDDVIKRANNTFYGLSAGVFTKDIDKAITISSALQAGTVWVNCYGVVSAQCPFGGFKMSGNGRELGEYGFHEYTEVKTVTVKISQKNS

Potency, inconclusive:
CCNC(=O)N1CCCC(C(=O)c2ccc3cc(OC)ccc3c2)C1 (stereo not drawn) 28.2 µM [inhibitor, partial curve], CCC(=O)NC(=S)Nc1cccc(NC(=O)c2ccc(Cl)cc2Cl)c1 37.7 µM [inhibitor, single point], CSc1oc(-c2ccccc2)nc1S(=O)(=O)c1ccc(C)cc1 39.8 µM [inhibitor, partial curve, poor fit], CCCn1cc(NC(=O)c2cc(-c3ccccc3)on2)cn1 39.8 µM [inhibitor, single point], O=S(=O)(Nc1ccc(Oc2ncccn2)c(Cl)c1)c1ccc(Cl)cc1 12.6 µM [inhibitor, partial curve], COc1cc(C(=O)NCCC2=CCCCC2)cc(OC)c1OC 39.8 µM [inhibitor, single point], O=C(Cn1ncn2c(cc3ccccc32)c1=O)NCc1ccco1 20 µM [inhibitor, partial curve], Nc1cc(N)nc(SCC(=O)c2ccccc2)n1 7.08 µM [inhibitor, single point], Cc1csc(N(C(=O)c2cccc(S(=O)(=O)N(C)C)c2)c2ccccc2)n1 39.8 µM [inhibitor, single point], CC(C)Oc1ccc(/C=N/NC(=O)C2CCCN2S(=O)(=O)c2ccc(Cl)cc2)cc1 (stereo not drawn) 39.8 µM [inhibitor, single point], CN(c1ccc(C(=O)Nc2ccccc2Sc2ccccc2)cc1)S(C)(=O)=O 28.2 µM [inhibitor, partial curve], C=C(C)CSc1nnc(-c2ccc(OC)cc2)n1N 0.891 µM [inhibitor, full curve], COc1ccc(C2=CC3=C(Br)C(=O)C(C)(OC(=O)c4ccc(Cl)nc4)C(=O)C3=CO2)cc1 (stereo not drawn) 39.8 µM [inhibitor, single point], COc1cccc(C2C=C(Nc3ccccc3)C(=O)N2c2ccccc2)c1 (stereo not drawn) 3.55 µM [inhibitor, partial curve], C=CCNc1oc(-c2ccc(OCC)cc2)nc1C#N 31.6 µM [inhibitor, partial curve], COc1ccnc(Oc2ccccc2)c1C(=O)N/C=N/OCc1ccccc1F 20 µM [inhibitor, partial curve], COc1cccc(CN(CC2CCCO2)S(=O)(=O)c2ccc(-n3cnnn3)c(OC)c2)c1 (stereo not drawn) 22.4 µM [inhibitor, single point], COc1ccc(C(=O)N2CCN(c3cnn(-c4ccccc4)c(=O)c3Cl)CC2)cc1 22.4 µM [inhibitor, single point], Cn1c(-c2ccccc2)c(C(=O)CC#N)c2ccccc21 2.82 µM [inhibitor, full curve], CCSc1nnc(NC(=O)C2CCCCC2C(=O)OCC(F)(F)C(F)F)s1 (stereo not drawn) 28.2 µM [inhibitor, partial curve], CC(C)OCCCNC(=O)c1c(N)n(/N=C/c2cccs2)c2nc3ccccc3nc12 7.08 µM [inhibitor, full curve], CCCCCOC(=O)c1ccc(N2C(=O)C3C4C=CC(C4)C3C2=O)cc1 (stereo not drawn) 39.8 µM [inhibitor, single point], O=C1CCCc2c1[nH]c1ccc(Br)cc21 17.8 µM [inhibitor, partial curve], O=C1c2[nH]nc(-c3ccccc3O)c2C(c2cccc(Cl)c2)N1Cc1ccco1 (stereo not drawn) 39.8 µM [inhibitor, single point], CCOc1ccc(-c2cc(N)n(S(=O)(=O)c3ccc(OC)c(OC)c3)n2)cc1 28.2 µM [inhibitor, single point], c1ccc(SCc2cn3cccnc3n2)nc1 28.2 µM [inhibitor, partial curve], Cc1cc(Cl)c(S(=O)(=O)NCC2CCCO2)cc1OCC(=O)NC1CCCCC1 (stereo not drawn) 35.5 µM [inhibitor, single point], COc1ccc(CCN=C(N)NS(=O)(=O)c2ccccc2)cc1 39.8 µM [inhibitor, single point], O=c1[nH]c(N/N=C/c2ccc(O)cc2)nc2ccccc12 28.2 µM [inhibitor, single point], CSc1nc2c(c(-c3ccc(O)cc3)c1C#N)CCC2 39.8 µM [inhibitor, single point], Cc1ccc2oc(=O)c3cc(C(=O)NCc4ccco4)sc3c2c1 31.6 µM [inhibitor, single point], O=C1c2ccccc2C(Nc2cccnc2)N1Cc1ccccc1 (stereo not drawn) 31.6 µM [inhibitor, single point], CCOC(=O)c1oc2ccccc2c1CSc1nnnn1-c1ccc(C)cc1 39.8 µM [inhibitor, single point], Cc1ccc2nc(N(CCCN(C)C)C(=O)c3ccc(Br)s3)sc2c1 39.8 µM [inhibitor, single point], CC(NCc1ccco1)C(=O)N1CCc2ccccc2C1 (stereo not drawn) 39.8 µM [inhibitor, single point], CC(C)Cn1c(-c2csc(C(C)C)c2)n[nH]c1=S 6.31 µM [inhibitor, partial curve], COc1ccc2cc(CCNC(=O)c3cccs3)c(=O)[nH]c2c1 31.6 µM [inhibitor, single point], O=c1n(Cc2ccccc2)c2cc(Cl)cnc2n1Cc1ccccc1 28.2 µM [inhibitor, partial curve], CCOC(=O)C(C)Sc1nc(-c2ccccn2)ncc1OC (stereo not drawn) 39.8 µM [inhibitor, single point], COc1ccc(-n2c(SCC(N)=O)nnc2-c2ccc(NS(=O)(=O)c3ccc(C)cc3)cc2)cc1 39.8 µM [inhibitor, single point], CC(C)CCNC1=CC(=O)CC(c2ccccc2)C1 (stereo not drawn) 12.6 µM [inhibitor, partial curve], CSc1ccccc1C(=O)N1CCOCC1 39.8 µM [inhibitor, single point], Cc1ccc(-c2cc3ncc(C#N)c(N)n3n2)cc1 39.8 µM [inhibitor, single point], O=C1Nc2ccc(F)cc2C12Nc1ccccc1-c1nnc(SCc3ccccc3F)nc1O2 (stereo not drawn) 25.1 µM [inhibitor, partial curve], CCOC(=O)C1CCN(C(=O)c2cc3c(-c4ccc(OC)c(OC)c4)nn(C)c3s2)CC1 39.8 µM [inhibitor, single point]

Potency, active:
CSc1nc2sc3c(c2c(=O)n1C)CCC(C)C3 (stereo not drawn) 25.1 µM, CC1(C)CC(=O)c2c(oc3cc4c(cc23)OCO4)C1 7.94 µM, COc1ccc(-c2c(-c3ccc(OCC(=O)NN)cc3O)n[nH]c2C(F)(F)F)cc1 12.6 µM, CSc1nc(=S)c2[nH]c(=S)[nH]c2[nH]1 1.41 µM, COc1ccc(Br)cc1C1CC(=O)N2CN(C)CSC2=C1C#N (stereo not drawn) 7.08 µM, CCOC(=O)c1c(NC(=S)Nc2ccccc2)sc2c1CC(C)(C)SC2 2.51 µM, COc1ccc(OCC(=O)NC(=S)Nc2ccc3c4c(cccc24)CC3)cc1 15.8 µM, COc1cccc(/C=N/N2C(=O)CSC2=S)c1O 7.08 µM, Cc1ccc(Sc2nnc(Cc3ccccc3)c3ccccc23)cc1 28.2 µM, COc1ccc(C2C=C(C34CC5CC(CC(C5)C3)C4)NC(=S)N2)cc1OC (stereo not drawn) 7.94 µM, CCOc1ccc(C(=O)c2cnc3ccccc3c2N2CCN(CC)CC2)cc1 8.91 µM

Potency, inactive:
COc1cccc(/C=N/NC(=O)c2ccc(-c3ccccc3)cc2)c1O, O=C(C[n+]1ccccc1)c1ccc(-c2ccccc2)cc1, CC(=O)NCCNc1ncnc2ccc(-c3ccccc3C(F)(F)F)cc12, O=C(CSc1nnc(-c2ccncc2)o1)N1CCCC1, CCN(CC)CC(=O)N1c2ccccc2CCc2ccc(NC(=O)c3cc(OC)c(OC)c(OC)c3)cc21, COc1cccc(-c2nccc(NCc3ccccc3OC)n2)c1, O=C(NCC1CCCO1)c1ccc(S(=O)(=O)N2CCC(c3nc4ccc(Cl)cc4[nH]3)CC2)cc1 (stereo not drawn), Cc1ccc2c(c1)nnn2C1CCN(C(=O)NC23CC4CC(CC(C4)C2)C3)CC1, O=C(CCc1c[nH]c2ccccc12)NCC1CCCO1 (stereo not drawn), c1ccn2c(CNc3ncnc4sccc34)nnc2c1, CCOC(=O)c1ccccc1NC(=S)N1CCN(C2CCCCC2)CC1, COC(=O)CC1(c2ccccc2)C(=O)c2ccccc2C1=O, O=C(Cn1nc(C(F)(F)F)c2c1CCC2)NCc1ccc(Cl)cc1, COc1cc(OC)cc(C(=O)N[C@H](C(=O)Nc2nc3ccc(S(C)(=O)=O)cc3s2)C(C)C)c1, O=C(NCC1CCCO1)C1CCN(C2CCN(C(=O)CC3CCCC3)CC2)CC1 (stereo not drawn)

activity, negative = inhibition, inactive:
[N-]=[N+]=N[C@@H]1[C@H](O)[C@H](CO)O[C@@H]1n1cnc2c(N)ncnc21 18% [at 13.5 µM], O=C(O)C/C=C\CC(=O)O 19.5% [at 13.5 µM]
